B1: LINE1-mini (parent)
chain: GGCAGAGCUCAACACAGCGUGGCAAAGUGGCUGUGGCUAGACUGCC

The source gives no read counts; variants with many changes may rest on few reads.

The variants in this data set derive from B1. Description: self-cleavage, relative activity (ratio to wild type); higher = more cleavage; in vitro, sequencing; the parent is a self-cleaving ribozyme.
Regarding GGCAGAGCCCAACACAGCGUGGCAAAGUGGCUGUCGCUAAAGUGCC [U9C G35C G40A C42G], the self-cleavage was 0.01.
Consider GGCAGAGCGCAACACGGCUUGGCAAAGUGGCUGUGGUUAGACUGGC [U9G A16G G19U C37U C45G], for which the self-cleavage worked out at 0.04.
To GGCAGAGCGCACUACAGCGUGGCAAAGUCGCUGUGGCUAGACUGCC [U9G A12C C13U G29C] belongs 0.01.
In the case of GGCAGAGCGCAACACAGCGUGGCGAAGUGGCUGUGUCUAGACUGCC [U9G A24G G36U], the self-cleavage came out at 0.02.
To GGCAGAGCGCCACACAGCGUGGCAAAGGAGCUGUCGCUAGACUGCC [U9G A11C U28G G29A G35C] belongs 0.01; to GGCAGAGCCCAACACAGCGUGGCAAAGUGGCUGGGGCUAUACUGCC [U9C U34G G40U], 0; to GGCAGAGCGCGACACAGCGUGGCAAAGUGACUGUGGCUAGACUGCC [U9G A11G G30A], 0.01.
As for GGCAGAGCGCAACGCAGCGUGGCAAAGUGGCUGUGGCUAAAAUGCC [U9G A14G G40A C42A], the figure is 0.04; as for GGCAGAGCCCAACACAGCGUGGCAAAGUGGCUGUUGUUAGACUGCC [U9C G35U C37U], 0.05.
To GGCAGAGCCCAACACAGCGUGGCAAAGUGGCUGUGCCUAGAAUGCC [U9C G36C C42A] belongs 0.01.
In the case of GGCAGAGCCCAACACAGCGUGGCAAAGUGGCUGUGGCUAUACUGUC [U9C G40U C45U], the self-cleavage is 0.16.
To GGCAGAGCGCAACGCGGCGUGGCAAAGUGGCUGUGGCAAGACAGCC [U9G A14G A16G U38A U43A] belongs 0; to GGCAGAGCGCAUCACACCGUGGCAGAGUGGCUCUGGCUAGACUGCC [U9G A12U G17C A25G G33C], 0.01; to GGCAGAGCGCCACACAGCAUGGCAAAGUGACUGUGGCUAGACUGCC [U9G A11C G19A G30A], 0.01.
As for GGCAGAGCCCAACACAGCGUGACAAAGUGGGUGUGGCUAGUAUGCC [U9C G22A C31G A41U C42A], the self-cleavage amounted to 0.01.
As for GGCAGAGCCCAACACAGCGUGGCAAAGUGGCAGUGGCUAGACUGUC [U9C U32A C45U], the figure is 0; as for GGCAGAGCGCAACGCAGCGUGGCAAAGUUGCUGUGGCUAGACUGGC [U9G A14G G29U C45G], 0.02; as for GGCAGAGCGCACCGCAGCGUUGCAAACUGGCUUUGGCUAGACUGCC [U9G A12C A14G G21U G27C G33U], 0.01.
To GGCAGAGCCCAACACAGCGUGGCAAACUGGCUGUUCCUAGACUGCA [U9C G27C G35U G36C C46A] belongs 0.01; to GGCAGAGCGCACCACAGCGUCGCACCGUGGGUGUGGCUAGACUGCC [U9G A12C G21C A25C A26C C31G], 0; to GGCAGAGCCCAACACAGCGUGACAAAGUGGCUAUGGUUAGACUGCC [U9C G22A G33A C37U], 0.01.
As for GGCAGAGCCCAACACAGCGUGGCAAAGUGGCUAUGGCUCUACUGCC [U9C G33A A39C G40U], the figure is 0.02.
Take GGCAGAGCGCACCAGAGCGUGGCAAAAUGGCUGUGUCUAGACUGCC [U9G A12C C15G G27A G36U]: the self-cleavage stood at 0.01.
To GGCAGAGCGCAACACGGCGUGGCAAAGUGGCAGUGGCUAGACUGCC [U9G A16G U32A] belongs 0.22.
GGCAGAGCCCAACACAGCGUGGCAAAGUGUUUGUGGGCUGACUGCC [U9C G30U C31U C37G U38C A39U]: the self-cleavage came out at 0.07.
To GGCAGAGCCCAACACAGCGUGGCAAAGUGGCUGUGACUAGCCAGCC [U9C G36A A41C U43A] belongs 0.02.
As to GGCAGAGCGCAACCCAGCGUGGCAAAGUGGCUGUGGCUAGACUGCG [U9G A14C C46G], the self-cleavage is 0.06.
To GGCAGAGCCCAACACAGCGUGGCAAAGUGGCUGGGGCUAGACUGGC [U9C U34G C45G] belongs 0.01; to GGCAGAGCCCAACACAGCGGGGCAAAGUCGCUGUGGCUAGGCUGCC [U9C U20G G29C A41G], 0.02.
To GGCAGAGCCCAACACAGCGUGGCAAAGUGGCCGUGGCUAUACUGCC [U9C U32C G40U] belongs 0.01; to GGCAGAGCGCACCACAGCGUGGCAAACUGGCUGUGGCUAGACUGCC [U9G A12C G27C], 0.01; to GGCAGAGCCCAACACAGCGUGCCAAAGUGGCUGUGGGUAGACUGCC [U9C G22C C37G], 0.02.
To GGCAGAGCCCAACACAGCGUGGCAAAGUGGCGGUGGCCAGACUGCC [U9C U32G U38C] belongs 0.06; to GGCAGAGCGCCACACAGCGUGGCACAGUGGCUGUGGCUAGACUGCU [U9G A11C A25C C46U], 0; to GGCAGAGCGCAACACUGCGUGGCAAAGGGGCUGUGGCUAGACUGCC [U9G A16U U28G], 0.01.
Regarding GGCAGAGCGCAUCACAGCGUGGCAAAGAGCGUGUGGCUAGACUGCC [U9G A12U U28A G30C C31G], the self-cleavage amounted to 0.02.
To GGCAGAGCCCAACACAGCGUGGCAAAGUCGCUUUGGCUAGACUGCC [U9C G29C G33U] belongs 0.03.
As to GGCAGAGCCCAACACAGCGUGGCAAAGUGGCCGUGGCUAGAAUGCC [U9C U32C C42A], the self-cleavage was 0.03.
GGCAGAGCCCAACACAGCGUGGCAAAGUGGCUGAGGCUAGCCUGCC [U9C U34A A41C]: the self-cleavage was 0.05.
To GGCAGAGCGCAACACGGCGUGGCAAAGUGGCUGUGGCUAGACUGCA [U9G A16G C46A] belongs 0; to GGCAGAGCGCAACCCAGCGUGGCAGAGUGGCUGUGGCUAGACUGCC [U9G A14C A25G], 0.05.
As for GGCAGAGCGCUACACAGCGUGGCAAAGUGUCUGUGGCUAGACGGCC [U9G A11U G30U U43G], the figure is 0.
As for GGCAGAGCGCUACACAGCGUGGCAAAGUGGGGGUGGGUAGACUGCC [U9G A11U C31G U32G C37G], the figure is 0.01; as for GGCAGAGCCCAACACAGCGUGGCAAAGUGGCUGUGUCUAAACUGCC [U9C G36U G40A], 0.1.
Consider GGCAGAGCGCAACACAGCGUGGCCAAGUGGCUGUGGCAAGACUGCC [U9G A24C U38A], for which the self-cleavage is 0.12.
Regarding GGCAGAGCCCAACACAGCGUUGCAAAGUGUAUGUGGCUAGAUUGCC [U9C G21U G30U C31A C42U], the self-cleavage came to 0.02.
To GGCAGAGCCCAACACAGCGCGGCAAAGUGGCUGUGGCCAGACUGCC [U9C U20C U38C] belongs 0; to GGCAGAGCGCACCACAGAGUGGCAAAGUGGCUGUGGCUAGACUGCC [U9G A12C C18A], 0.03.
As for GGCAGAGCCCAACACAGCGCGGCAACGUGGCUGUGGCUGGACUGCC [U9C U20C A26C A39G], the figure is 0.03.
As for GGCAGAGCCCAACACAGCGUUGCAAAGCGGCUGUGGCUAGACUGCC [U9C G21U U28C], the figure is 0.
With GGCAGAGCCCAACACAGCGUGUCAAAGUGGCUGUGGCUAGCCUGCC [U9C G22U A41C], the self-cleavage is 0.04.
Turning to GGCAGAGCGCAACCCAGCGUGGCAAAGUGGCUGCGGCUAGACUGCC [U9G A14C U34C], the self-cleavage was 0.01.
As for GGCAGAGCGCAACUCAGCGUGGCAAAGUCGCUGUGGCUAUACUGCC [U9G A14U G29C G40U], the figure is 0.05; as for GGCAGAGCCCAACACAGCGCGGCAAAGUGGCUGUGGCUACACUGCC [U9C U20C G40C], 0.01; as for GGCAGAGCGCCACAGAGCGUGGCACAGUGCCUGUGGCUAGGCUGCC [U9G A11C C15G A25C G30C A41G], 0.01.
As for GGCAGAGCCCAACACAGCGUGGCAAAGUGGCUGUAGCUCGACUGCC [U9C G35A A39C], the figure is 0.01.

(Values after the RNAGym collection of RNA variant scans (doi:10.7554/elife.90254).)
